According to patent US20250270339A1 (Alector, published 2025):

T1: Cyno TfR ECD Avi-His (cynomolgus macaque, UniProt Q5RDH6 89-760 (Pongo abelii entry), biotin on the Avi tag (BirA) where captured on streptavidin)
T1 construct: also called Cyno TfR Avi-His; cyno TfR Avi-His
T1 chain: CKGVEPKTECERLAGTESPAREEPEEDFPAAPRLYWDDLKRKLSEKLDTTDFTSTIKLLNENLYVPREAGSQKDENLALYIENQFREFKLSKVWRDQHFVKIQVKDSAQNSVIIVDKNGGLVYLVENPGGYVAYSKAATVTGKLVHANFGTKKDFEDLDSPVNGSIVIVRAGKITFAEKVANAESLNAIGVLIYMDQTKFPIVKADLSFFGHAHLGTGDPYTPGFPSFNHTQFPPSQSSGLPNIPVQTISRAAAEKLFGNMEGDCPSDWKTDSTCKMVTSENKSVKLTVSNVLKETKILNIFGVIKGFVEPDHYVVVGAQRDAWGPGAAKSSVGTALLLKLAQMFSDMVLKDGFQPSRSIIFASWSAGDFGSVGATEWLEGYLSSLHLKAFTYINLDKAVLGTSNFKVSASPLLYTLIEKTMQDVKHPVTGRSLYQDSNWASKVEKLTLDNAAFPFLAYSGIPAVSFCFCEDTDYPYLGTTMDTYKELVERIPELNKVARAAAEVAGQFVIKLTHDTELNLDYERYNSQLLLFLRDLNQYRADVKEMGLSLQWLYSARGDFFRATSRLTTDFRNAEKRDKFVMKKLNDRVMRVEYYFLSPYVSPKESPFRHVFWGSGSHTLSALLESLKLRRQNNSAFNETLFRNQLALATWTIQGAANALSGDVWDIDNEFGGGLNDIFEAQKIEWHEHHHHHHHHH

B1: TfR9.1B.35 2+1 anti-TfR bispecific antibody (bispecific antibody, human IgG1, kappa)
heavy 1: EVRLLESGGGLVQPGGSLRLSCAASGFTFSNYAMGWVRQAPGKGLEWVSAISGSGGSTYYADSVKGRFTTSRDDSKNALYLQMNSLRAEDTAVYYCARGGPGWYAADVWGQGTTVTVSSASTKGPSVFPLAPSSKSTSGGTAALGCLVKDYFPEPVTVSWNSGALTSGVHTFPAVLQSSGLYSLSSVVTVPSSSLGTQTYICNVNHKPSNTKVDKKV[here human IgG1 Fc with changes without letters]GGGGSGGGGSGGGGSQVQLVQSGAEVKKPGASVKVSCKASGYTFTEYAMHWVRQAPGQGLEWMGGINPNDGGTSYNQKFKGRVTMTVDTSTSTAYMELSSLRSEDTAVYYCASQGWLLRGGDYWGQGTLVTVSSGGSEGKSSGSGSESKSTGGSDVVMTQSPLSLPVTLGQPASISCKSSQSLLDSDGKTYLNWLQQRPGQSPRRLIYLVSKLDSGVPDRFSGSGSGTDFTLKISRVEAEDVGVYHCWQGTHFPQSFGGGTKVEIK
heavy 2: EVRLLESGGGLVQPGGSLRLSCAASGFTFSNYAMGWVRQAPGKGLEWVSAISGSGGSTYYADSVKGRFTTSRDDSKNALYLQMNSLRAEDTAVYYCARGGPGWYAADVWGQGTTVTVSS[here human IgG1 constant region with changes without letters]
light: DIQMTQSPSSLSASVGDRVTITCRASQSISSYLNWYQQKPGKAPKLLIYAASSLQSGVPSRFSGSGSGTDFTLTISSLQPEDFATYYCQQADLPAFAFGGGTKVEIKRTVAAPSVFIFPPSDEQLKSGTASVVCLLNNFYPREAKVQWKVDNALQSGNSQESVTEQDSKDSTYSLSSTLTLSKADYEKHKVYACEVTHQGLSSPVTKSFNRGEC
notes: 2+1
B2: TfR9.1B.41 2+1 anti-TfR bispecific antibody (bispecific antibody, human IgG1, kappa)
heavy 1: EVRLLESGGGLVQPGGSLRLSCAASGFTFSNYAMGWVRQAPGKGLEWVSAISGSGGSTYYADSVKGRFTTSRDDSKNALYLQMNSLRAEDTAVYYCARGGPGWYAADVWGQGTTVTVSSASTKGPSVFPLAPSSKSTSGGTAALGCLVKDYFPEPVTVSWNSGALTSGVHTFPAVLQSSGLYSLSSVVTVPSSSLGTQTYICNVNHKPSNTKVDKKV[here human IgG1 Fc with changes without letters]GGGGSGGGGSGGGGSQVQLVQSGAEVKKPGASVKVSCKASGYTFTEYAMHWVRQAPGQGLEWMGGINPNDGGTHYNQKFKGRVTMTVDTSTSTAYMELSSLRSEDTAVYYCASQRWLLRGGDYWGQGTLVTVSSGGSEGKSSGSGSESKSTGGSDVVMTQSPLSLPVTLGQPASISCKSSQSLLDSDGKTYLNWLQQRPGQSPRRLIYLVSKLDSGVPDRFSGSGSGTDFTLKISRVEAEDVGVYYCWQGTHFPQTFGGGTKVEIK
heavy 2: EVRLLESGGGLVQPGGSLRLSCAASGFTFSNYAMGWVRQAPGKGLEWVSAISGSGGSTYYADSVKGRFTTSRDDSKNALYLQMNSLRAEDTAVYYCARGGPGWYAADVWGQGTTVTVSS[here human IgG1 constant region with changes without letters]
light: B1 light
notes: 2+1
B3: TfR9.1B.10 2+1 anti-TfR bispecific antibody (bispecific antibody, human IgG1, kappa)
heavy 1: EVRLLESGGGLVQPGGSLRLSCAASGFTFSNYAMGWVRQAPGKGLEWVSAISGSGGSTYYADSVKGRFTTSRDDSKNALYLQMNSLRAEDTAVYYCARGGPGWYAADVWGQGTTVTVSSASTKGPSVFPLAPSSKSTSGGTAALGCLVKDYFPEPVTVSWNSGALTSGVHTFPAVLQSSGLYSLSSVVTVPSSSLGTQTYICNVNHKPSNTKVDKKV[here human IgG1 Fc with changes without letters]GGGGSGGGGSGGGGSQVQLVQSGAEVKKPGASVKVSCKASGYTFTEYAMHWVRQAPGQGLEWMGGINPNDGGTSYNQKFKGRVTMTVDTSTSTAYMELSSLRSEDTAVYYCASQGWLLRGGDYWGQGTLVTVSSGGSEGKSSGSGSESKSTGGSDVVMTQSPLSLPVTLGQPASISCKSSQSLLDSDGKTYLNWLQQRPGQSPRRLIYLVSKLDSGVPDRFSGSGSGTDFTLKISRVEAEDVGVYYCWQGTHFPQTFGGGTKVEIK
heavy 2: EVRLLESGGGLVQPGGSLRLSCAASGFTFSNYAMGWVRQAPGKGLEWVSAISGSGGSTYYADSVKGRFTTSRDDSKNALYLQMNSLRAEDTAVYYCARGGPGWYAADVWGQGTTVTVSS[here human IgG1 constant region with changes without letters]
light: B1 light
notes: 2+1
B4: TfR9.1B.33 2+1 anti-TfR bispecific antibody (bispecific antibody, human IgG1, kappa)
heavy 1: EVRLLESGGGLVQPGGSLRLSCAASGFTFSNYAMGWVRQAPGKGLEWVSAISGSGGSTYYADSVKGRFTTSRDDSKNALYLQMNSLRAEDTAVYYCARGGPGWYAADVWGQGTTVTVSSASTKGPSVFPLAPSSKSTSGGTAALGCLVKDYFPEPVTVSWNSGALTSGVHTFPAVLQSSGLYSLSSVVTVPSSSLGTQTYICNVNHKPSNTKVDKKV[here human IgG1 Fc with changes without letters]GGGGSGGGGSGGGGSQVQLVQSGAEVKKPGASVKVSCKASGYTFTEYAMHWVRQAPGQGLEWMGGINPNDGGTSYNQKFKGRVTMTVDTSTSTAYMELSSLRSEDTAVYYCASQRWLYRGGDYWGQGTLVTVSSGGSEGKSSGSGSESKSTGGSDVVMTQSPLSLPVTLGQPASISCKSSQSLLDEDGKTYLNWLQQRPGQSPRRLIYQVSKLDSGVPDRFSGSGSGTDFTLKISRVEAEDVGVYYCWQGTHFPQTFGGGTKVEIK
heavy 2: EVRLLESGGGLVQPGGSLRLSCAASGFTFSNYAMGWVRQAPGKGLEWVSAISGSGGSTYYADSVKGRFTTSRDDSKNALYLQMNSLRAEDTAVYYCARGGPGWYAADVWGQGTTVTVSS[here human IgG1 constant region with changes without letters]
light: B1 light
notes: 2+1
B5: TfR9.1B.40 2+1 anti-TfR bispecific antibody (bispecific antibody, human IgG1, kappa)
heavy 1: EVRLLESGGGLVQPGGSLRLSCAASGFTFSNYAMGWVRQAPGKGLEWVSAISGSGGSTYYADSVKGRFTTSRDDSKNALYLQMNSLRAEDTAVYYCARGGPGWYAADVWGQGTTVTVSSASTKGPSVFPLAPSSKSTSGGTAALGCLVKDYFPEPVTVSWNSGALTSGVHTFPAVLQSSGLYSLSSVVTVPSSSLGTQTYICNVNHKPSNTKVDKKV[here human IgG1 Fc with changes without letters]GGGGSGGGGSGGGGSQVQLVQSGAEVKKPGASVKVSCKASGYTFTEYAMHWVRQAPGQGLEWMGGINPNDGGTSYNQKFKGRVTMTVDTSTSTAYMELSSLRSEDTAVYYCASQRWLDRGGDYWGQGTLVTVSSGGSEGKSSGSGSESKSTGGSDVVMTQSPLSLPVTLGQPASISCKSSQSLLDSDGKTYLNWLQQRPGQSPRRLIYLVSKLDSGVPDRFSGSGSGTDFTLKISRVEAEDVGVYYCWQGTQFPQTFGGGTKVEIK
heavy 2: EVRLLESGGGLVQPGGSLRLSCAASGFTFSNYAMGWVRQAPGKGLEWVSAISGSGGSTYYADSVKGRFTTSRDDSKNALYLQMNSLRAEDTAVYYCARGGPGWYAADVWGQGTTVTVSS[here human IgG1 constant region with changes without letters]
light: B1 light
notes: 2+1

Biological target: T1, Cyno TfR ECD Avi-His
Assay: SPR (Carterra LSA), 2+1 immobilised
Description: The remaining unconjugated active groups on the chip were then blocked by injecting 1M Ethanolamine pH 8.5 (Carterra) for 7 minutes using the single channel flow cell.
Estimates of affinity were generated by injecting each analyte over the entire antibody array using the single channel flow cell. […] Data were processed and analyzed using NextGenKIT high-throughput kinetics analysis software (Carterra).

Binding result, binds:
B1
B2
B3
B4
B5
